# Assay results published in PubChem BioAssay AID686979 (National Center for Advancing Translational Sciences (NCATS), 2013).
# “And” between values parts separate entries of the source, which are not always exact repeats. Equal entries are not always repeated. About 50,000 (12%) of roughly 420,000 compounds were called active. Inconclusive means that the source gave no clear call. Such entries were picked first, then a sample of the others. The call rests on the fitted dose curve; in most records, active means well fitted inhibition curve with a large enough effect; inconclusive means small, poorly fitted or top-dose-only effect; inactive means flat fitted curve, though single readings scatter. Where the call is inconclusive, the potency comes from a doubtful curve fit.
# Experiment: qHTS for Inhibitors of human tyrosyl-DNA phosphodiesterase 1 (TDP1): qHTS in cells in presence of CPT; further: nearly all actives have a fitted effect of over 55% in size
# Settings: chicken DT40 Tdp1-/-;hTDP1 cells + 20 nM CPT, ATP luminescence, 48 h; activity change, negative = growth inhibition: at 46.2 µM (top of the series) unless noted
# Method in brief: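 Cell growth measured by CellTiter-Glo luminescence after a minimum 48 h, 37 C compound exposure with 20 nM CPT in Tdp1-knockout DT40 cells stably expressing hTDP1, seeded 400/well; qHTS titration format.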
# On the % scale 0 is the no-effect control and ±100 the full control effect; potency means the concentration at half of the fitted maximal effect; tags describe the fitted curve by direction and shape.
Compound,Potency,"activity change, negative = growth inhibition"
CC(=O)c1ccccc1NS(=O)(=O)c1ccccc1Cl,inactive,–
COc1cc(OC)cc(C(=O)N[C@H](C(=O)Nc2ccc(S(=O)(=O)N(C)C)cc2)C(C)C)c1,inactive,–
COc1cc(-c2cc(=O)c3c(O)c(OC)c(OC)c(O)c3o2)ccc1O,"inconclusive: 23.1 µM [inhibitor, single point]",–
CSc1ccccc1C(=O)N1CCN(c2ncccn2)CC1,inactive,–
CC(=O)OC[C@H]1O[C@@H](n2ncc(=O)[nH]c2=O)[C@H](OC(C)=O)[C@@H]1OC(C)=O,"inconclusive: 21.1 µM [inhibitor, single point]",–
O=C(c1ccc(=O)oc1)N1CCC(C(O)(c2ccccc2)c2ccccc2)CC1,inactive,–
CC(CCc1ccccc1)NC(=O)CNC(=S)N(Cc1cccs1)C1CCCC1 (centres undefined),"inconclusive: 25.9 µM [inhibitor, single point]",–
C#Cc1cccc(NC(=O)c2ccc(Cl)cc2Cl)c1,inactive,–
O=C1CCCc2c1oc1c2CCCC1,inactive,–
CCOc1ccccc1NC(=O)Nc1ccc2nc(N3CCN(C)CC3)cc(C)c2c1,"inconclusive: 25.9 µM [inhibitor, single point]",–
Cc1ccc2nc(-c3cccc(Br)c3)c(CC3CCCCC3)n2c1,"inconclusive: 29.1 µM [inhibitor, single point]",–
CCc1nc2c(OCc3ccc(Cl)cc3)cccn2c1N(C)C(=O)c1ccccc1F,"inconclusive: 23.1 µM [inhibitor, single point]",–
CCC1CCCCN1C(=O)COC(=O)COc1ccc(Br)cc1 (centres undefined),inactive,–
Nc1nccc(-c2ccc(-n3cccc3)cc2)n1,inactive,–
C/C=C/Cn1c(SCc2ccc(Cl)cc2)nc2c1c(=O)[nH]c(=O)n2C,active: 18.4 µM,–
COc1ccccc1Cn1c(=S)[nH]c2cc(C(=O)NCCN(C)C)ccc2c1=O,"inconclusive: 25.9 µM [inhibitor, single point]",–
Cc1ccc(NC(=O)C2CCCN(c3cnccn3)C2)cc1Cl (centres undefined),"inconclusive: 29.1 µM [inhibitor, single point]",–
Cc1ccc(CS(=O)Cc2ccc(C(=O)NCc3ccccc3Cl)o2)cc1 (centres undefined),"inconclusive: 14.6 µM [inhibitor, partial curve] and inconclusive: 18.4 µM [inhibitor, single point]",–
O=C(O)COCCN1CCN(C(c2ccccc2)c2ccc(Cl)cc2)CC1 (centres undefined),"inconclusive: 29.1 µM [inhibitor, single point]",–
O=C(C1=C(O)C(=O)N(CCN2CCOCC2)C1c1cccc(Br)c1)c1cccs1 (centres undefined),–,inconclusive: -33.6% [inhibitor]
O=C(NNC(=O)C1COc2ccccc2O1)c1ccccc1O (centres undefined),"inconclusive: 29.1 µM [inhibitor, single point]",–
O=C(NCC(c1ccco1)N1CCc2ccccc2C1)C(=O)Nc1ccccc1 (centres undefined),"inconclusive: 29.1 µM [inhibitor, single point]",–
Nc1c(C(=O)Nc2ccccc2Cl)nnn1-c1ccc2c(c1)OCCO2,–,inconclusive: -30.2% [inhibitor]
COc1ccc(-n2c(=O)c(C)nc3cnc(Nc4ccccc4)nc32)cc1,"inconclusive: 20.6 µM [inhibitor, single point]",–
COc1ccc(/C=C2\SC(N)=NC2=O)cc1,"inconclusive: 23.1 µM [inhibitor, single point]",–

Compound,Potency,"activity change, negative = growth inhibition"
CSc1ccc(/C=N\Nc2nncn2N)cc1,–,inconclusive: -33.2% [inhibitor]
CSc1ccccc1OCc1cc(C(=O)NCCCn2nc(C)cc2C)no1,active: 16.4 µM,–
COc1ccc(C(CC(=O)N2CCCC2)c2c(OC)cc(OC)c3ccc(=O)oc23)cc1 (centres undefined),"inconclusive: 29.1 µM [inhibitor, single point]",–
O=S(=O)(c1cccc(-c2csc(N/N=C/c3ccco3)n2)c1)N1CCOCC1,active: 16.4 µM,–
O=C(NCCc1ccccn1)c1c(-c2ccccc2)sc2ccccc12,"inconclusive: 29.1 µM [inhibitor, single point]",–
S=c1nc(-c2ccccc2)oc2c1CCCC2,"inconclusive: 25.9 µM [inhibitor, single point]",–
COc1ccccc1C(=O)Nc1cccc(OCc2cc(=O)n3c(C)csc3n2)c1,active: 16.4 µM,–
O=S(=O)(c1cc(Br)c(Br)s1)N1CCN(c2ccccc2)CC1,inactive,–
CCNC(=O)C1CCCN(c2nc(C)cc(C)n2)C1 (centres undefined),inactive,–
O=C(Cc1ccc(S(=O)(=O)N2CCOCC2)s1)N1CCN(S(=O)(=O)c2cccc(Cl)c2)CC1,active: 16.4 µM,–
N#CC(C#N)=CC1=C2OC(c3ccccc3)=CC(c3ccccc3)=C2CCC1,active: 25.9 µM,–
COc1ccc(CONS(=O)(=O)c2ccc(NC(C)=O)cc2)cc1Cl,active: 20.6 µM,–
COc1ccc(N(C(=O)Cn2nnc(-c3ccc(F)cc3)n2)C(C)C(=O)NC2CCCC2)cc1OC (centres undefined),inactive,–
CC(=O)NC1C(=O)N(Cc2ccccc2)c2ccc(Br)cc21 (centres undefined),"inconclusive: 29.1 µM [inhibitor, single point]",–
CCCCn1nc(C(=O)NCc2ccccc2CN2CCCC2)c2ccccc2c1=O,"inconclusive: 29.1 µM [inhibitor, single point]",–
CCOc1ccc(Br)cc1C1=CC(=O)C[C@H](c2ccc(OC)cc2)C1,active: 4.61 µM,–
Cc1ccc(S(=O)(=O)c2nnn3c2nc(NCc2ccccc2)c2sccc23)cc1,"inconclusive: 20.6 µM [inhibitor, single point]",–
CN(Cc1ccco1)c1ncnc2ccc(-c3ccccc3Cl)cc12,active: 20.6 µM,–
CSCCC(NC(=O)c1ccco1)C(=O)O (centres undefined),inactive,–
CC(NC(=O)COC(=O)c1cc(Cl)ccc1O)C1CC2CCC1C2 (centres undefined),"inconclusive: 23.1 µM [inhibitor, single point]",–
CCOc1ccccc1C(=O)Nc1ccccc1-c1ccccc1,"inconclusive: 29.1 µM [inhibitor, single point]",–
COC(=O)c1ccccc1NC(=O)CSc1n[nH]c(-c2ccco2)n1,inactive,–
Cc1ccc(NC(=O)c2cc3nc(C)cc(C)n3n2)cc1,inactive,–
O=c1[nH]c(-c2ccccc2)nn1-c1ccc(Br)cc1Br,"inconclusive: 25.9 µM [inhibitor, single point]",–
CC(=O)OC1(C(C)=O)CCC2C3CC(Cl)C4=CC(=O)CCC4(C)C3CCC21C (centres undefined),"inconclusive: 29.1 µM [inhibitor, single point]",–

Compound,Potency,"activity change, negative = growth inhibition"
Cc1nnc(SCC(=O)Nc2cccc(S(=O)(=O)N(C)c3ccccc3)c2)s1,active: 8.2 µM,–
Cc1[nH]n(-c2ccccc2)c(=O)c1/C=N/NC(=O)c1ccc(O)cc1O,"inconclusive: 23.1 µM [inhibitor, single point]",–
COc1ccc(C)cc1NC(=O)CNCc1cccs1,"inconclusive: 5.17 µM [inhibitor, partial curve]",–
CCOc1ccc(-c2cccc(NS(=O)(=O)c3ccccc3[N+](=O)[O-])c2)nn1,inactive,–
COC(=O)c1ccc(OC(=O)CCN2c3ccccc3Sc3ccccc32)cc1,inactive,–
CCC(C)C1Nc2ccc(C(=O)NCc3ccc4c(c3)OCO4)cc2NC1=O (centres undefined),"inconclusive: 18.4 µM [inhibitor, single point]",–
CCC(=O)Nc1cc(C)c(NC(=O)c2ccccc2OC)cn1,"inconclusive: 18.4 µM [inhibitor, single point]",–
CCOc1ccc(CCNC(=O)c2cc3cc4cc(OC)ccc4nc3s2)cc1OCC,"inconclusive: 4.11 µM [inhibitor, full curve, poor fit]",–
O=C(NC1CCN(Cc2ccccc2)CC1)c1cccc(Br)c1,active: 16.4 µM,–
Cc1ccc(Cc2c(-c3ccc(F)cc3)nc3ccc(Cl)cn23)cc1,"inconclusive: 29.1 µM [inhibitor, single point]",–
COc1ccc2c(c1)CCc1c(C(=O)Nc3cnn(Cc4ccc(Cl)cc4Cl)c3)noc1-2,"inconclusive: 29.1 µM [inhibitor, single point]",–
NC(=O)c1ccc(-c2ccccc2F)cc1,inactive,–
COc1cccc(NC(=O)CCSc2nc(-c3ccco3)cc(C(F)(F)F)n2)c1,"inconclusive: 18.4 µM [inhibitor, single point]",–
Cc1cc(C)c(S(=O)(=O)NCC(c2cccnc2)N2CCN(Cc3ccccc3)CC2)c(C)c1 (centres undefined),"inconclusive: 20.6 µM [inhibitor, single point]",–
CC(C)Cc1nn2c(=O)cc(COC(=O)c3ccccc3NC(=O)c3cccs3)nc2s1,inactive,–
O=C(CN1CCN(c2ccccn2)CC1)Nc1cccc(S(=O)(=O)N2CCCC2)c1,"inconclusive: 23.1 µM [inhibitor, partial curve]",–
Cn1c(N)c(C(=O)COC(=O)C2(c3ccccc3F)CCCC2)c(=O)n(C)c1=O,"inconclusive: 16.4 µM [inhibitor, single point]",–
Cc1cc([N+](=O)[O-])ccc1N1C(=O)c2ccc(C(=O)Nc3ccccc3C(=O)O)cc2C1=O,inactive,–
COc1cc(OC)c2c(-c3cccc(-c4cccc(C)c4)c3)cc(=O)oc2c1,active: 4.11 µM,–
CC1=NN(c2ccccc2)C(=O)C1C(=O)c1ccc(Cl)cc1 (centres undefined),active: 20.6 µM,–
O=C(O)CCc1c2ccc(=O)c(O)c-2oc2c(O)c(O)ccc12,inactive,–
Cc1ccc(S(=O)(=O)Cn2nnnc2C(C(C)C)N2CCC(C(N)=O)CC2)cc1 (centres undefined),inactive,–
O=C(COc1ccccc1Cl)NNC(=O)c1ccc(-n2cncn2)c([N+](=O)[O-])c1,"inconclusive: 23.1 µM [inhibitor, single point]",–
CCC(=O)Nc1ccccc1C(=O)OCc1ccc(C(=O)c2ccccc2)cc1,active: 20.6 µM,–
